ChEMBL document CHEMBL1201862, “PubChem BioAssay data set” (2004)

test system: NCI-H322M; test: growth of human tumour cells (NCI), 48 h

Compound	GI50
CCCN(CCC)c1c([N+](=O)[O-])cc(C(N)=O)cc1[N+](=O)[O-]	inactive: 60.3 µM
S=c1sc2cscc2s1	inactive: 21.3 µM
CC1CC2=C(C1)C(C1(C)C(=O)CC3C(C1=O)C3(C)C)C(C)C2=O (stereo not given)	inactive: > 100 µM
N#C/C(=C\c1cccc(Cl)c1Cl)c1ccccc1	inactive: > 82.8 µM
CCCCCCCCCCCCCCCCNc1nc(=O)n(C2OC(C)C(O)C2O)cc1F (stereo not given)	inactive: 18.2 µM
CC(C)(C)OC(=O)NCCC(N)=S	inactive: > 100 µM
CC(=O)N1CCC2(c3ccccc3N(C(C)=O)C2c2ccc(O)cc2)C1C(=O)O (stereo not given)	inactive: > 100 µM
Nc1ccc(C(=O)Nc2ccccc2N)cc1 [DINALINE]	inactive: 46.2 µM
O=C(/C=C\c1ccc(/C=C/C(=O)Nc2cccc(C3=NCCCN3)c2)cc1)Nc1cccc(C2=NCCCN2)c1	inactive: > 100 µM
Oc1ccccc1/C=N/Nc1nc(N/N=C/c2ccccc2O)nc(N/N=C/c2ccccc2O)n1	inactive: > 100 µM
OC12c3ccccc3C1CCCCCCCCCC21OCCCO1 (stereo not given)	inactive: > 100 µM
O=C1CC2C=CC(O)C(C1)C2 (stereo not given)	inactive: > 100 µM
CCOC(=O)/C(=C/c1ccco1)P(=O)(OCC)OCC	inactive: > 100 µM
C/C(=N\NC(=O)c1cccnc1)c1cccc(/C(C)=N/NC(=O)c2cccnc2)n1	inactive: 3.67 µM
O=C(Nc1ccc(Cl)cc1)c1cc(S(=O)(=O)Nc2n[nH]c(=O)[nH]2)c(SSc2cc(Cl)c(C(=O)Nc3ccc(Cl)cc3)cc2S(=O)(=O)Nc2n[nH]c(=O)[nH]2)cc1Cl	inactive: > 100 µM
O=C1C(Br)=C(Br)C(=O)c2c(O)ccc(O)c21	inactive: 21.2 µM
CCOC(=O)c1nc2ccc(C(F)(F)F)cc2nc1Oc1ccc(OC)cc1	inactive: > 100 µM
COC(=O)C1Cc2c(n(C)c3ccccc23)C(CCC(=O)O)N1Cc1ccccc1 (stereo not given)	inactive: 35.3 µM
c1ccc(CCCCNCc2cc(CNCCCCc3ccccc3)cc(CNCCCCc3ccccc3)c2)cc1	inactive: 1.34 µM
O=C(O)CCCc1ccc2ccc3ccccc3c2c1	inactive: > 100 µM
COc1cccc(Nc2nc(-c3cccs3)nc3cc(OC)c(OC)cc23)c1	inactive: 37.7 µM
C[C@H](NC1=C(Cl)C(=O)c2c(O)ccc(O)c2C1=O)C(=O)Nc1ccc([N+](=O)[O-])cc1	inactive: 3.09 µM
CCCCN(CCCC)c1ccc(/N=N/c2ccc(S(=O)(=O)O)cc2)cc1	inactive: 19.3 µM

Compound	GI50
O=C(c1ccccc1)C1C[C@H]2CO[C@H](c3ccccc3)N2C1=O (stereo not given in full)	inactive: > 100 µM
Nc1ccc2c(SCC(=O)Nc3ccccc3-c3ccccc3NC(=O)CSc3c4ccccc4nc4cc(N)ccc34)c3ccccc3nc2c1	inactive: 25.4 µM
O=C(C#CP(=O)(O)c1ccccc1)c1ccccc1	inactive: > 100 µM
O=C(c1cc2ccccc2[nH]1)C(O)(c1cc2ccccc2[nH]1)c1cc2ccccc2[nH]1	inactive: > 246 µM
CC(C(=O)c1ccccc1)C1(O)C(=O)Nc2ccc(Cl)cc21 (stereo not given)	inactive: > 100 µM
Oc1c(Br)cc(/C=C/c2cccc(/C=C/c3cc(Br)c(O)c(Br)c3)n2)cc1Br	inactive: 13.9 µM
CC/C=C/c1cc2c(c3[nH]ccc13)[C@@H](C)CC2C.CC/C=C/c1cc2cc[nH]c2c2c1C(C)C[C@@H]2C.CCc1cc2c(c3[nH]ccc13)[C@@H](C)CC2C (stereo not given in full)	inactive: 18.3 µM
NNC(=O)c1c(Cl)c(Cl)c(Cl)c(Cl)c1-c1nc2ccccc2[nH]1	inactive: 19.6 µM
Cc1oc2nc(N(C)C)n3cnnc3c2c1C	inactive: > 100 µM
CCOC(=O)C(Cl)(NC(=O)OCc1ccccc1)C(F)(F)F (stereo not given)	inactive: > 100 µM
N=C(N)NNC(=O)C(=O)O	inactive: > 100 µM
COc1ccc(/C=C2\N=C3N(Cc4ccccc4)C=C(N)N3C2=O)cc1	inactive: > 100 µM
O=S(=O)(O)c1ccc(/N=N\c2ccc(/N=N/c3ccc(/C=C/c4ccc(/N=[N+](\[O-])c5ccc(/C=C/c6ccc(/N=N/c7ccc(/N=N/c8ccc(S(=O)(=O)O)cc8)c8ccccc78)cc6S(=O)(=O)O)c(S(=O)(=O)O)c5)cc4S(=O)(=O)O)c(S(=O)(=O)O)c3)c3ccccc23)cc1	inactive: > 77.8 µM
CCCCCCCCCCCCCCCCSS(C)(=O)=O	inactive: > 100 µM
COc1cc(OC)c(-c2ccc(OCc3ccccc3)c3c(OC)cc(C)cc23)c2c1C(C)=N[C@H](C)C2	inactive: 2.93 µM
Clc1ccc(C2c3ccccc3-c3nc4ccccc4n32)cc1 (stereo not given)	inactive: 22.8 µM
CCOC(=O)CC(=O)C(=O)NN=C1NCCN1	inactive: > 100 µM
OCC(O)C(O)C(O)C(O)c1nc2cc(Cl)ccc2[nH]1 (stereo not given)	inactive: > 100 µM
CSC1(CC(=O)N(C)C)C(=O)Nc2ccccc21 (stereo not given)	inactive: > 100 µM
CN(C)Cc1cc(C(=O)/C=C/c2ccc([N+](=O)[O-])cc2)cc(CN(C)C)c1O	inactive: 4.24 µM
COc1ccc(Sc2ccccc2N)cc1	inactive: 50.4 µM
CCCCCCC(O)C(O)CCC(O)C1CCC(CCCCC(O)CC2=CC(C)OC2=O)O1 (stereo not given) [ACETOGENINS]	inactive: 5.2 µM
COC(=O)C1C=NNC1C(=O)OC (stereo not given)	inactive: > 100 µM

Compound	GI50
CC(C)(C)c1ccc2c(c1)OP1(Oc3c(Cl)cc(Cl)c4cccnc34)(O2)Oc2ccc(C(C)(C)C)cc2O1	inactive: 11.9 µM
COc1ccccc1NC(=O)CC(=O)n1nc(C)c(/N=N/c2ccccc2Cl)c1C	inactive: > 100 µM
CCOc1ccc(/N=C/c2ccc3ccccc3n2)cc1	inactive: > 100 µM
COc1cc(COC(=O)N2CCCCC2C(=O)O)c([N+](=O)[O-])cc1OC (stereo not given)	inactive: > 100 µM
c1cc2c(cc1C(N1CCNCC1)N1CCNCC1)OCO2	inactive: > 100 µM
CC(C)C.C[N+](C)(C)C.OC(c1ccccc1)(C(F)(F)F)C(F)(F)F.OC(c1ccccc1)(C(F)(F)F)C(F)(F)F.[SiH3-]	inactive: 12.3 µM
COc1cc(C2c3cc4c(cc3OC(NNC(N)=O)C2C)OCO4)cc(OC)c1OC (stereo not given)	active: 0.139 µM
Oc1c(Br)ccc2cccnc12	inactive: 7.26 µM
CN(/N=C1\C(=O)Nc2ccccc21)c1ccccc1	inactive: 48.2 µM
CC(C)=Cc1cc2c(cc1O)CCC1C2CC[C@@]2(C)C1CC[C@@H]2O (stereo not given in full)	inactive: 5.33 µM
COC(=O)c1c(O)ccc2c1c1cc3ccccc3cc1n2Cc1cc(OC)cc(OC)c1	inactive: 6.56 µM
Cn1c(=O)[nH]c2nccnc2c1=O	inactive: > 10 µM
CSc1[nH]cnc1C(N)=S	inactive: > 100 µM
Nc1cnc(Nc2cccc3ccccc23)o1	inactive: > 10 µM
CC(=O)Nc1ccc2oc(=O)c3ccccc3c2c1	inactive: > 100 µM
Cc1ccc(S(=O)(=O)OC2CSSCC2OS(=O)(=O)c2ccc(C)cc2)cc1 (stereo not given)	inactive: 18.3 µM
N#CC(C(=O)CCC(=O)Nc1ccc(Cl)c(Cl)c1)c1ccccc1 (stereo not given)	inactive: > 100 µM
COc1cc(/C=C/C2=NN(c3cccc(S(=O)(=O)O)c3)C3(C2)C(Cl)C(=O)N3c2nc3ccccc3s2)ccc1O (stereo not given)	inactive: 82.4 µM
N#Cc1c(N2CCCC2)ncn(-c2ccccc2)c1=O	inactive: > 100 µM
OC(c1cc2ccccc2[nH]1)C1(c2cccnc2)SCCCS1 (stereo not given)	inactive: > 100 µM
COc1cc2cc(C(=O)N3CC(CCl)c4c3cc(O)c3ccccc43)[nH]c2c(OC)c1OC (stereo not given)	active: < 0.005 µM
COC(=O)C1=C(C)N(NC(N)=O)C2(N)N(NC(N)=O)C(C)=C(C(=O)OC)C12C#N (stereo not given)	inactive: > 100 µM
CO[C@H]1C[C@@H]2CC[C@@H](C)[C@@](O)(O2)C(=O)C(=O)N2CCCC[C@H]2C(=O)O[C@H]([C@H](C)C[C@@H]2CC[C@@H](OC(=O)C(C)(CO)CO)[C@H](OC)C2)CC(=O)[C@H](C)/C=C(\C)[C@@H](O)[C@@H](OC)C(=O)[C@H](C)C[C@H](C)/C=C/C=C/C=C/1C [TEMSIROLIMUS]	active: 0.00129 µM

Compound	GI50
CCOC(=O)c1cc(Sc2ccc(N)c(C(=O)OCC)c2)ccc1N	inactive: 28.2 µM
CCOC(=O)NC(Nc1ccc(S(=O)(=O)Nc2nc(C)cc(C)n2)cc1)(C(=O)OCC)C(F)(F)F (stereo not given)	inactive: > 100 µM
O=C(/C=C/c1ccccc1)CCc1c(O)c2ccccc2oc1=O	inactive: > 100 µM
COc1ccc([C@@H]2CC(=O)N2)cc1	inactive: > 100 µM
CN(C)CCNC(=O)c1cccc2ccc(-c3cccnc3)nc12	inactive: 6.07 µM
O=c1[nH][nH]c(=O)n1Cc1ccccc1Cn1c(=O)[nH][nH]c1=O	inactive: > 100 µM
Cc1cc2nnn(C3CCCO3)c2cc1C (stereo not given)	inactive: > 100 µM
C[C@@H]1[C@H](c2ccccc2)O[B-]2(c3ccc(Br)cc3)OC(=O)C[N+]12C (stereo not given in full)	inactive: > 100 µM
O=C1CCC[C@H]2O[C@@H](COC(=O)c3ccccc3)C[C@H]2O1	inactive: > 100 µM
CCCCCCc1ccc(O)cc1O [HEXYLRESORCINOL]	inactive: > 100 µM
N=C1N(c2ccccc2)C(=S)/C(=N/c2ccccc2)N1c1ccccc1	inactive: 17.1 µM
O=C(O)c1cc(O)c2c(c1)C([C@@H]1c3cccc(O)c3C(=O)c3c(O)cc(C(=O)O)cc31)c1cccc(O)c1C2=O (stereo not given in full)	inactive: 63.7 µM
O=P1(N(CCCl)CCCl)NCCCO1 (stereo not given) [CYCLOPHOSPHAMIDE ANHYDROUS]	inactive: > 250 µM
O=c1ccn([C@@H]2C[C@H](CO)C[S+]([O-])C2)c(=O)[nH]1 (stereo not given in full)	inactive: > 100 µM
Cc1ccc([N+](=O)[O-])cc1S(=O)(=O)Nc1ccc(C2=NN(S(=O)(=O)c3cc([N+](=O)[O-])ccc3C)C(c3cccs3)C2)cc1 (stereo not given)	inactive: 23.4 µM
Clc1ccc(SC(/C=C/NNC2=NN=C(c3ccccc3)C(c3ccccc3)N2)c2ccccc2)cc1 (stereo not given)	inactive: 31.2 µM
CC(C)(C)OC(=O)N1NC(c2ccccc2)CC1c1ccccc1 (stereo not given)	inactive: 26.5 µM
Cc1cc(S(=O)(=O)Nc2nnc3c(C(F)(F)F)cc(Cl)cn23)c(S)cc1Cl	inactive: 68.7 µM
FC(F)(F)c1ccc2c(c1)nc1n2C(c2c(Cl)cccc2Cl)SC1 (stereo not given)	inactive: 19.3 µM
Nc1ncnc2c1ncn2CC(O)CO (stereo not given)	inactive: > 100 µM
CCCCCC(=O)Nc1[nH]nnc1C(N)=O	inactive: > 100 µM

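Interpolation was linear, between the two tested concentrations surrounding the appropriate level; five concentrations were tested over 48 hours in 96-well plates. GI50 marks 50% less growth.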 The source made the active and inactive calls. Cut-off read from the data, not from the text of the source: active = GI50 up to about 1.1 µM and inactive = higher.
